# In the BET-seq Pho4 binding data (Le et al. 2018):
# The list shows a part of the results. These are noisy estimates, calculated here from bound and input reads.
# Biological target: T1, Pho4 (S. cerevisiae) (UniProt P07270)
# T1 sequence: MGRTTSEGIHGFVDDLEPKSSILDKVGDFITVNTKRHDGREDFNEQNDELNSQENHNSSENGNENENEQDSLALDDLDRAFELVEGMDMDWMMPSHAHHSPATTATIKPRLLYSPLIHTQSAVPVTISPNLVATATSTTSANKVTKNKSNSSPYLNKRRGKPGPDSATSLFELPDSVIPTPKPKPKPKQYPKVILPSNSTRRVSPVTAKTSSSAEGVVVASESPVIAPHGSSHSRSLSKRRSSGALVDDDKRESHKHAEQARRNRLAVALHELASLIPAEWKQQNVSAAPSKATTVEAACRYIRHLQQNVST
# Assay: relative binding free energy (BET-seq); higher = weaker binding
# Conditions: reference: library average
row,Sequence,relative binding free energy
1,TGGTGCACGTGTGCAG,-0.03 kcal/mol
2,TATAACACGTGGATTT,0.14 kcal/mol
3,TTATTCACGTGGGGGA,0.21 kcal/mol
4,AGTAACACGTGGGGGG,-0.11 kcal/mol
5,GGATGCACGTGTGATA,0.03 kcal/mol
6,GTTATCACGTGGGCGG,0.12 kcal/mol
7,TGTTTCACGTGGACCT,0.2 kcal/mol
8,GGTGCCACGTGGATGG,-0.04 kcal/mol
9,TTATACACGTGGGCGG,-0.1 kcal/mol
10,ATCCGCACGTGTTTGT,0.09 kcal/mol
11,TGTGTCACGTGAAGCA,0.28 kcal/mol
12,TCGTTCACGTGAGTTA,0.36 kcal/mol
13,TCTGTCACGTGGTGAT,0.09 kcal/mol
14,GCAATCACGTGGTGTT,0.13 kcal/mol
15,TAAGTCACGTGCGGTG,0.07 kcal/mol
16,TATTTCACGTGGCGTG,0.23 kcal/mol
17,TGTAGCACGTGGACGG,-0.04 kcal/mol
18,GGTTGCACGTGGGAAT,0.04 kcal/mol
19,CGAGGCACGTGGTGGC,-0.2 kcal/mol
20,TCGTTCACGTGGGTGG,0.11 kcal/mol
21,GGAGGCACGTGTGACG,-0.09 kcal/mol
22,TGATTCACGTGAGGGT,0.48 kcal/mol
23,TGCAGCACGTGTTATT,-0.1 kcal/mol
24,GGGTACACGTGATTTG,0.17 kcal/mol
25,CGTTTCACGTGGTAAA,0.24 kcal/mol
26,AGGTGCACGTGGTGTA,-0.03 kcal/mol

row,Sequence,relative binding free energy
1,ATGGTCACGTGGATGG,0.15 kcal/mol
2,TGATTCACGTGCTGGG,0.31 kcal/mol
3,GTCATCACGTGGTGAT,0.19 kcal/mol
4,GGTTTCACGTGGGGTA,0.22 kcal/mol
5,AATTTCACGTGGTTAA,0.26 kcal/mol
6,GTATTCACGTGTGCAT,0.09 kcal/mol
7,TTGGACACGTGTACTG,0.02 kcal/mol
8,GTTGTCACGTGGGCGC,-0.01 kcal/mol
9,ATTAACACGTGGTTCG,-0.04 kcal/mol
10,AGTTACACGTGGCGGA,-0.02 kcal/mol
11,ATAATCACGTGTTTTG,0.07 kcal/mol
12,TAAAGCACGTGGTAGG,-0.22 kcal/mol
13,CGCGGCACGTGAGTTT,0.22 kcal/mol
14,GGCGTCACGTGGATAT,0.15 kcal/mol
15,GTGGGCACGTGGCGGC,-0.29 kcal/mol
16,GCGTGCACGTGGCAGG,-0.16 kcal/mol
17,GGGGGCACGTGTGTAT,-0.05 kcal/mol
18,GGGCACACGTGGTTTT,0.12 kcal/mol
19,TGCTGCACGTGGGACG,-0.1 kcal/mol
20,CTCGTCACGTGTCGTT,0.12 kcal/mol
21,TATTTCACGTGTTAAT,0.33 kcal/mol
22,GGAGGCACGTGGGCTA,-0.24 kcal/mol
23,TGTATCACGTGTAATG,0.07 kcal/mol
24,GTGAACACGTGCTGGG,0.04 kcal/mol
25,TCTCGCACGTGGTGTA,-0.19 kcal/mol
26,TGCTTCACGTGGAGAG,0.21 kcal/mol

row,Sequence,relative binding free energy
1,ATTGGCACGTGTTACT,-0.19 kcal/mol
2,ATATTCACGTGTGGGC,0.24 kcal/mol
3,ATTAGCACGTGTTTTG,-0.17 kcal/mol
4,TAAGACACGTGGTTGT,0.01 kcal/mol
5,ATATTCACGTGCATGG,0.29 kcal/mol
6,GGGGGCACGTGGGGGG,-0.08 kcal/mol
7,TATGGCACGTGAGCCG,0.12 kcal/mol
8,TGTGTCACGTGTATTG,0.14 kcal/mol
9,GGTGGCACGTGTAATG,0.12 kcal/mol
10,TAATGCACGTGGAGGC,-0.04 kcal/mol
11,GTATGCACGTGTCGTG,-0.06 kcal/mol
12,TTTTACACGTGAGTTA,0.33 kcal/mol
13,AGGATCACGTGGAGCG,0.35 kcal/mol
14,CGTTCCACGTGGTATG,0.12 kcal/mol
15,GGCACCACGTGAGGTT,0.34 kcal/mol
16,GAGCTCACGTGGGATG,0.28 kcal/mol
17,ATGATCACGTGGTGGC,0.09 kcal/mol
18,GGTAGCACGTGCGGCG,-0.01 kcal/mol
19,AAGTTCACGTGCGTTA,0.25 kcal/mol
20,ATTGACACGTGTAGGG,0.18 kcal/mol
21,TGTTGCACGTGTCATC,0.08 kcal/mol
22,GGCTGCACGTGGTCAG,-0.09 kcal/mol
23,GTAGACACGTGGGGGC,0.03 kcal/mol
24,ACGTTCACGTGGAGGG,0.14 kcal/mol
25,CTATGCACGTGGGTTT,-0.15 kcal/mol
26,TGTTGCACGTGAAGCT,0.2 kcal/mol

row,Sequence,relative binding free energy
1,GGGTGCACGTGCGGAT,-0.01 kcal/mol
2,AGAGGCACGTGATTCT,0.04 kcal/mol
3,AGGGGCACGTGGGCGT,-0.27 kcal/mol
4,TACTGCACGTGAGTTT,0.18 kcal/mol
5,TGTGGCACGTGAGGGG,0.18 kcal/mol
6,TCGGGCACGTGTTTTT,-0.05 kcal/mol
7,ATGTTCACGTGTGATC,0.22 kcal/mol
8,TGTTACACGTGGACAT,0.2 kcal/mol
9,ATAGACACGTGTGGGT,-0.03 kcal/mol
10,CATGTCACGTGGTCGT,-0.06 kcal/mol
11,TGATACACGTGTGCTG,0.03 kcal/mol
12,CGTTTCACGTGGCGTG,0.11 kcal/mol
13,GGTAGCACGTGGTGTC,-0.04 kcal/mol
14,GAGTGCACGTGTGATT,0.15 kcal/mol
15,GCTCGCACGTGGGGTT,-0.25 kcal/mol
16,TCTTGCACGTGAGGGG,0.15 kcal/mol
17,GAGGACACGTGGTGGG,0.15 kcal/mol
18,GTTAGCACGTGTTGGG,-0.01 kcal/mol
19,TAGCACACGTGCGGGT,0.05 kcal/mol
20,AAATACACGTGTGTTA,0.1 kcal/mol
21,AATGTCACGTGATTGC,0.27 kcal/mol
22,CGGTTCACGTGAGGTA,0.44 kcal/mol
23,TTTAGCACGTGATTGC,0.15 kcal/mol
24,TGTTACACGTGGATTC,0.15 kcal/mol
25,GAAGACACGTGGGTGG,-0.25 kcal/mol
26,ATAGGCACGTGTACGT,-0.07 kcal/mol

row,Sequence,relative binding free energy
1,GATGCCACGTGCTGGG,0.04 kcal/mol
2,GAGAGCACGTGGAGTT,0.02 kcal/mol
3,ATGGTCACGTGGCATG,-0.01 kcal/mol
4,TAAGTCACGTGTGATT,0.14 kcal/mol
5,AGTGACACGTGCAGTT,-0.08 kcal/mol
6,TAGTGCACGTGAGCAG,0.07 kcal/mol
7,GGTGCCACGTGGAGAT,0.07 kcal/mol
8,TTGGTCACGTGGCGTT,0.02 kcal/mol
9,AATAGCACGTGGAGTT,-0.16 kcal/mol
10,GGTAGCACGTGCGATG,-0.01 kcal/mol
11,AAATACACGTGGTGGG,0.13 kcal/mol
12,CTTCTCACGTGGTTTT,0.18 kcal/mol
13,GTGTCCACGTGTTGGG,0.09 kcal/mol
14,AGTTACACGTGTTGCG,0.22 kcal/mol
15,TATTCCACGTGGAGTT,0.02 kcal/mol
16,ATACACACGTGGTGTT,-0.18 kcal/mol
17,TTTGTCACGTGGAATT,0.21 kcal/mol
18,GGTAGCACGTGTAAGT,0.06 kcal/mol
19,CTCTACACGTGGGGTG,-0.13 kcal/mol
20,GTTTTCACGTGGATAT,0.24 kcal/mol
21,CTCTTCACGTGATTGT,0.39 kcal/mol
22,CTTCGCACGTGGTAGT,-0.18 kcal/mol
23,CTGGGCACGTGTAGCT,0.04 kcal/mol
24,TATCGCACGTGTGTTA,0.11 kcal/mol
25,TTTTTCACGTGTTGTT,0.35 kcal/mol
26,TTTATCACGTGTAGGT,0.21 kcal/mol

row,Sequence,relative binding free energy
1,TCATGCACGTGATTGT,0.13 kcal/mol
2,TGTTGCACGTGATTGA,0.1 kcal/mol
3,GCGTCCACGTGTGTGT,0.19 kcal/mol
4,ATTTTCACGTGCGTGC,0.17 kcal/mol
5,CGTGCCACGTGTTGGT,-0.08 kcal/mol
6,AGGATCACGTGTTGAT,0.01 kcal/mol
7,AGGGTCACGTGAGGAT,0.21 kcal/mol
8,TATTCCACGTGGTGAG,0.03 kcal/mol
9,GAGGGCACGTGACGGG,0.18 kcal/mol
10,TTGATCACGTGCTTGT,-0.01 kcal/mol
11,GCTATCACGTGATTGG,0.25 kcal/mol
12,AGAGTCACGTGAGTCG,0.38 kcal/mol
13,TGATTCACGTGATTTC,0.38 kcal/mol
14,GTTTACACGTGTATTC,0.16 kcal/mol
15,AACTACACGTGTGTGG,0.15 kcal/mol
16,GTTGACACGTGCGGTA,0.01 kcal/mol
17,TCATTCACGTGGTGTA,0.01 kcal/mol
18,GTCGTCACGTGGGCTT,-0.07 kcal/mol
19,GAGTTCACGTGCTGGG,0.23 kcal/mol
20,ATATACACGTGTTATG,-0.14 kcal/mol
21,TTACTCACGTGTGCTT,0.27 kcal/mol
22,AGTGACACGTGAAAGT,0.42 kcal/mol
23,TTGTTCACGTGAACGT,0.34 kcal/mol
24,ATCTTCACGTGGTGAG,0.22 kcal/mol
25,GGAGGCACGTGGAGCT,-0.23 kcal/mol
26,TTTGCCACGTGGGTTT,-0.08 kcal/mol

row,Sequence,relative binding free energy
1,TAAATCACGTGGAAGT,0.31 kcal/mol
2,CAGGTCACGTGGGTTA,0 kcal/mol
3,GGTCTCACGTGAGTTG,0.46 kcal/mol
4,CGAGACACGTGGGGGA,-0.1 kcal/mol
5,TTCCGCACGTGGGGTA,-0.14 kcal/mol
6,AGTTTCACGTGGTGTT,0.27 kcal/mol
7,TGGAGCACGTGTAGCT,-0.14 kcal/mol
8,GTATTCACGTGTTGCG,0.25 kcal/mol
9,TTTTACACGTGTGCTT,0.13 kcal/mol
10,AGAGACACGTGGTGAT,-0.09 kcal/mol
11,TAGTTCACGTGGAAAA,0.34 kcal/mol
12,TGCGTCACGTGGTGTC,0.1 kcal/mol
13,TAAGGCACGTGATTTT,0.06 kcal/mol
14,ATGGCCACGTGTGTTT,0.09 kcal/mol
15,ATGCGCACGTGGCGGG,-0.33 kcal/mol
16,AGTCACACGTGTGGGT,0.19 kcal/mol
17,TCTGTCACGTGTTTAA,-0.04 kcal/mol
18,AGATGCACGTGTGAGT,0 kcal/mol
19,CGTATCACGTGTGGAT,0.13 kcal/mol
20,TTTACCACGTGAGGTG,0.26 kcal/mol
21,TTGTTCACGTGATGGG,0.37 kcal/mol
22,TAGAGCACGTGAGTTG,0.08 kcal/mol
23,GCGGGCACGTGAGGTA,0.24 kcal/mol
24,AAAGCCACGTGGGGGG,-0.29 kcal/mol
25,GTATGCACGTGGATTA,0.02 kcal/mol
26,CATGTCACGTGATAGG,0.2 kcal/mol

row,Sequence,relative binding free energy
1,CAGAGCACGTGGGTGG,-0.26 kcal/mol
2,CAGTTCACGTGTTTTT,0.22 kcal/mol
3,AACTGCACGTGGTAAG,0.05 kcal/mol
4,TCGTACACGTGAAGGT,0.15 kcal/mol
5,GGCTGCACGTGAGCGG,0.16 kcal/mol
6,TCAGGCACGTGAAGTT,0.15 kcal/mol
7,ACTTGCACGTGAGGGG,-0.01 kcal/mol
8,AATTACACGTGTTTGA,0.09 kcal/mol
9,AGTCGCACGTGTGGTA,0 kcal/mol
10,CGCTTCACGTGTTTGA,0.21 kcal/mol
11,GTTATCACGTGTGAGA,0.26 kcal/mol
12,GGTACCACGTGTGGCG,0 kcal/mol
13,TATGACACGTGGAGGT,-0.09 kcal/mol
14,ACGTTCACGTGTTAGT,0.17 kcal/mol
15,GGGGACACGTGTGTGC,0 kcal/mol
16,TATATCACGTGGGCAG,0.04 kcal/mol
17,GCTAGCACGTGGTGGC,-0.06 kcal/mol
18,GGCTGCACGTGTGAGT,0.18 kcal/mol
19,GTGTCCACGTGTGGCT,0.16 kcal/mol
20,GGAGCCACGTGAGGTG,0.15 kcal/mol
21,AACGGCACGTGTTCTG,0.05 kcal/mol
22,TGACACACGTGGGTTA,-0.08 kcal/mol
23,TGGGTCACGTGTAAGC,0.23 kcal/mol
24,GTTGACACGTGTGTGA,0.03 kcal/mol
25,TTCGGCACGTGAAATG,0.13 kcal/mol
26,GTATCCACGTGAGGTT,0.29 kcal/mol

row,Sequence,relative binding free energy
1,TATAGCACGTGCGGGC,-0.11 kcal/mol
2,GGCTGCACGTGAGCGT,0.11 kcal/mol
3,GAATACACGTGGTTTT,0.14 kcal/mol
4,AGTTACACGTGGGAGT,0.01 kcal/mol
5,GGTCGCACGTGGGGGA,-0.04 kcal/mol
6,ATTGTCACGTGGTCGC,0.03 kcal/mol
7,TGCATCACGTGTTAGG,0.18 kcal/mol
8,AGTTCCACGTGTTGTT,-0.06 kcal/mol
9,TATAGCACGTGGAAGT,-0.02 kcal/mol
10,ATTTGCACGTGGAATG,0.21 kcal/mol
11,TGAGACACGTGTTGTC,-0.01 kcal/mol
12,GTCGTCACGTGGATTG,0.2 kcal/mol
13,GTGGACACGTGCTAGT,-0.07 kcal/mol
14,AGGTGCACGTGTGTAA,-0.04 kcal/mol
15,TTTTGCACGTGACCGG,0.06 kcal/mol
16,TCAGTCACGTGGGTTG,-0.08 kcal/mol
17,AAAGGCACGTGTGATA,-0.09 kcal/mol
18,GAGGTCACGTGGTTGC,0.2 kcal/mol
19,TTATACACGTGGGAAA,0.06 kcal/mol
20,GGGTGCACGTGGAGCT,0.02 kcal/mol
21,TCTTTCACGTGTAATA,0.42 kcal/mol
22,AGTTGCACGTGGTCGT,-0.08 kcal/mol
